In all, about 360,000 compounds went through this assay and about 2,600 (0.72%) were called active. The shares of active, inactive and inconclusive entries below differ from those in the screen. Calls follow the shape of the dose curve; as a rule, active = well fitted inhibition curve with a large enough effect; inconclusive = small, poorly fitted or top-dose-only effect; inactive = no such curve, though single readings can be large or run the other way. A potency beside an inconclusive call is a rough fit, not a confirmed value.
Test: Primary qHTS for Inhibitors of ATXN expression; also: nearly all actives have a fitted effect of over 55% in size
Details: HEK-293 ATXN2-luciferase reporter, luminescence, 24 h; activity change, negative = inhibition: at 57 µM (top of the series)
How it was run: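 qHTS (up to 57 uM final) was run with 24 h compound exposure of reporter cells at 37 °C. Each well was multiplexed: SteadyGlo luminescence measured ATXN2-luciferase expression after a fluorogenic Gly-Phe-AFC viability readout (25 uM final).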
In the case of `COCCCNC(=O)c1cc2c(-c3cccc(OC)c3)nn(C)c2s1`, the Potency is reported as “inactive”. With `COc1ccc(NC(=O)N2CCc3cc(OC)c(OC)cc3C2)cc1` the Potency was inconclusive: 6.7 µM [inhibitor, partial curve, poor fit]. With `COCCn1c(SCC(=O)Nc2cccc(F)c2)nc2c([nH]c3ccccc32)c1=O` the Potency was inconclusive: 8.91 µM [inhibitor, partial curve, poor fit]. In the case of `CC(C)[C@@H](C(=O)NC1CCN(Cc2ccccc2)CC1)N1C(=O)N2CCc3c([nH]c4ccccc34)[C@@]2(C)C1=O`, the Potency is reported as inconclusive: 25.1 µM [inhibitor, single point]. In the case of `CC(C)N(C(=O)[C@H]1C[C@H](CC(=O)NCc2cccc(C(F)(F)F)c2)C(=O)N2CCc3c([nH]c4cc(CCC(=O)N(C)C)ccc34)[C@]12C)C(C)C`, the Potency is reported as inconclusive: 35.5 µM [inhibitor, single point]. In the case of `Cc1sc(NC(=O)c2ccccc2)c(C(c2ccc(Cl)cc2)N2CCN(CCO)CC2)c1C` (stereo not drawn), the Potency is reported as inconclusive: 39.8 µM [inhibitor, single point]. In the case of `Cc1cccc(NC(=O)Cn2c(=O)n(CCCCCC(=O)NCc3ccccc3)c(=O)c3sccc32)c1`, the Potency is reported as inconclusive: 39.8 µM [inhibitor, single point]. In the case of `CCN(Cc1ccccc1)c1ncnc2c1cnn2-c1ccc(F)cc1`, the “activity change, negative = inhibition” value is reported as inactive: 65.1%. With `COc1ccc(CN2C[C@@H](CO)O[C@@H](n3cnc4c(NCc5ccco5)ncnc43)C2)cc1` the “activity change, negative = inhibition” value was inactive: -11.6%. In the case of `COc1ccc(C(=O)c2sc3nc4c(c(C(F)(F)F)c3c2N)CN(C(C)=O)CC4)cc1OC`, the Potency is reported as inconclusive: 10 µM [inhibitor, partial curve]. For `CCOc1ccc(OCC)c(NC(=O)c2nnn(CC(=O)Nc3cc(Cl)ccc3OC)c2N)c1`, the Potency was inconclusive: 10 µM [inhibitor, partial curve]. For `COc1c(CC=C(C)C)cc(C2CC(=O)c3c(O)cc(O)cc3O2)c(CC=C(C)C)c1O` (stereo not drawn), the Potency was inconclusive: 37.7 µM [inhibitor, single point]. For `Cc1ccc(-c2c3c(=O)n(C)c(=O)n(C)c3c3n2-c2ccccc2NC3c2ccc(C)cc2O)cc1` (stereo not drawn), the Potency was inconclusive: 22.4 µM [inhibitor, partial curve, poor fit]. With `NC(=O)c1c(OCc2c(F)cc(Br)cc2F)nsc1NC(=O)NCCCCN1CCCC1` the Potency was active: 30.6 µM. In the case of `CC(C)(C)c1ccc(/C=C(\c2nc3ccccc3[nH]2)S(=O)(=O)c2ccccc2)cc1`, the Potency is reported as active: 15.8 µM. In the case of `CC1(C)c2[nH]c3ccccc3c2C[C@H]2C(=O)N(Cc3ccccc3F)C(=O)N21`, the Potency is reported as inconclusive: 39.8 µM [inhibitor, single point]. With `CCOC(=O)c1c(C)n(-c2ccc(C)cc2)c2ccc(OCC(O)CNCC3CCCO3)cc12` (stereo not drawn) the Potency was inconclusive: 11.9 µM [inhibitor, single point]. In the case of `CCC(CN)=C(c1ccccc1)c1ccccc1`, the Potency is reported as inconclusive: 35.5 µM [inhibitor, partial curve, poor fit]. In the case of `Cc1ccc(C(C)C)c(OCc2nn(CC(=O)c3ccc(Cl)cc3)c3[n+]2CCCCC3)c1`, the Potency is reported as inconclusive: 37.7 µM [inhibitor, single point]. In the case of `CC1(C)CC(=O)c2sc(NC(=O)CCS(=O)(=O)c3ccccc3)nc2C1`, the Potency is reported as inconclusive: 37.7 µM [inhibitor, single point]. For `O=C1C(Oc2ccccc2)C(c2cccs2)N1Cc1ccc2c(c1)OCO2` (stereo not drawn), the “activity change, negative = inhibition” value was inactive: 6.24%. For `O=[N+]([O-])c1ccccc1C1Nc2cccc3cccc(c23)N1`, the Potency was inconclusive: 3.98 µM [inhibitor, single point]. For `C/C(=N/Nc1nc(C)cc(C)n1)c1ccc(Br)cc1`, the Potency was inconclusive: 39.8 µM [inhibitor, single point]. With `CCOC(=O)c1c(-n2c(C)cc(C=O)c2C)sc2c1CCCC2` the Potency was inconclusive: 39.8 µM [inhibitor, partial curve, poor fit]. With `O=C(CCCCl)NC(=S)Nc1ccc(N2CCOCC2)cc1` the “activity change, negative = inhibition” value was inactive: 2%. With `CN(Cc1ccccc1)c1ncnc2sccc12` the Potency was inconclusive: 2.51 µM [inhibitor, partial curve, poor fit]. With `O=c1[nH]cnc2c1ncn2C1OCC(O)C(O)C1O` (stereo not drawn) the “activity change, negative = inhibition” value was inactive: 7.72%. In the case of `COc1cccc(CC(=O)Nc2ccc3nc(Nc4cccc(C(F)(F)F)c4)cc(C)c3c2)c1`, the Potency is reported as inconclusive: 39.8 µM [inhibitor, single point]. For `O=C(Nc1ccccc1C(F)(F)F)c1cc2ncc(CCCl)cn2n1`, the “activity change, negative = inhibition” value was inactive: 0%. For `O=C(Nc1ccc(Cl)cc1)Nc1nnc(CSc2ccc(Cl)cc2)s1`, the Potency was inconclusive: 25.1 µM [inhibitor, single point]. For `O=c1ccnc(SCCc2ccc([N+](=O)[O-])cc2)[nH]1`, the “activity change, negative = inhibition” value was inactive: 1.74%. For `Clc1ccc(CSc2nnc(-c3ccccn3)n2Cc2cccs2)cc1Cl`, the Potency was inconclusive: 22.4 µM [inhibitor, single point]. With `Cc1ccccc1NC(=O)CCn1nc(-c2ccc(Cl)cc2)c2ccccc2c1=O` the “activity change, negative = inhibition” value was inactive: -6.13%. In the case of `CCn1nc(C(=O)N2CCN(Cc3nc4ccccc4s3)CC2)c2ccccc2c1=O`, the Potency is reported as inconclusive: 39.8 µM [inhibitor, single point]. In the case of `Cc1ccc(CN2C(=O)c3ccccc3NC2c2cc(Br)ccc2O)cc1` (stereo not drawn), the Potency is reported as inconclusive: 39.8 µM [inhibitor, single point]. For `Fc1ccc(-c2cc3nc(-c4ccccc4)cc(N4CCN(CCN5CCOCC5)CC4)n3n2)cc1`, the Potency was inconclusive: 28.2 µM [inhibitor, single point]. For `O=C(Cc1c(F)cccc1Cl)Nc1ccccc1-c1ccccc1`, the “activity change, negative = inhibition” value was inactive: -21.8%. With `O=[N+]([O-])c1ccc(-[n+]2ccc3ccccc3c2)c([N+](=O)[O-])c1` the Potency was inconclusive: 39.8 µM [inhibitor, single point]. In the case of `NS(=O)(=O)c1cccc(NC(=O)c2cc3ccccc3o2)c1`, the “activity change, negative = inhibition” value is reported as inactive: 31.2%. In the case of `N=c1c2c(-c3ccccc3)c(-c3ccccc3)n(Cc3ccccc3)c2ncn1CCO`, the Potency is reported as inconclusive: 22.4 µM [inhibitor, single point]. In the case of `O=C(Nc1cccc(-c2cccc(Cl)c2)c1)C1CCN(C2CCC2)CC1`, the Potency is reported as active: 28.2 µM. With `O=[N+]([O-])c1ccc(N2CCCCC2)cc1NCCOc1ccccc1` the “activity change, negative = inhibition” value was inactive: 20.8%. With `Cc1ccc2nc3c(c(Nc4ccc(C)c(C)c4)c2c1)CCC3` the Potency was inconclusive: 20 µM [inhibitor, partial curve]. In the case of `COc1cc(NC(=O)COc2ccccc2[N+](=O)[O-])ccc1NC(=O)c1cccs1`, the Potency is reported as inconclusive: 11.2 µM [inhibitor, partial curve]. In the case of `Cc1ccc(C(=O)Nc2cccc(C(=O)N/N=C/c3ccc(O)cc3)c2)cc1`, the activity change, negative = inhibition is reported as inconclusive: -64.6% [inhibitor]. For `Cc1[nH]n(-c2ccccc2)c(=O)c1C=Nc1ccc(S(=O)(=O)Nc2nccs2)cc1`, the “activity change, negative = inhibition” value was inactive: 4.92%. In the case of `CCOC(=O)c1ccc(NC(=O)CSc2ncc(S(=O)(=O)c3ccc(C)c(Cl)c3)c(=O)[nH]2)cc1`, the “activity change, negative = inhibition” value is reported as inactive: 11.3%. In the case of `O=C(O)C1CCN(S(=O)(=O)c2cccc3cccnc23)CC1`, the “activity change, negative = inhibition” value is reported as inactive: 1.01%. With `Cc1ccc(NC(=O)c2nc[nH]c2C(=O)N2CCN(c3ccccc3)CC2)cc1` the “activity change, negative = inhibition” value was inactive: 5.74%. With `CC(C)c1nc2ccc(C(=O)O)cc2[nH]1` the Potency was inconclusive: 12.6 µM [inhibitor, partial curve, poor fit]. With `Cc1ccc(-c2n[nH]c(=S)n2-c2ccccc2)cc1` the “activity change, negative = inhibition” value was inactive: 0.417%. In the case of `Cc1ccccc1C(=O)N1CCN(c2ccc(NC(=O)CSc3ccc(Cl)cc3)cc2)CC1`, the Potency is reported as inconclusive: 11.2 µM [inhibitor, partial curve]. For `OCCCCCN=c1cc(-c2ccccc2)oc2ccc(Cl)cc12`, the Potency was inconclusive: 31.6 µM [inhibitor, single point]. In the case of `Cc1noc(-c2ccc(-c3noc(-c4ccc([N+](=O)[O-])c(C)c4)n3)cc2)n1`, the “activity change, negative = inhibition” value is reported as inactive: 0.61%. With `C=CS(=O)(=O)c1c2cc(OC)ccc2nc2ccc(OC)cc12` the Potency was inconclusive: 26.7 µM [inhibitor, partial curve, poor fit]. For `O=C(c1nn2c(C(F)(F)F)cc(-c3cccs3)nc2c1Br)N1CCCc2ccccc21`, the “activity change, negative = inhibition” value was inactive: 27.8%. With `Cc1ccc(S(=O)(=O)N2CCc3cc(C(=O)Nc4ccc(Cl)cc4C)ccc32)cc1` the “activity change, negative = inhibition” value was inactive: 2.14%. With `Cc1cc(S(=O)(=O)Nc2ccc3oc4c(c3c2)CCCC4)ccc1Cl` the Potency was inconclusive: 39.8 µM [inhibitor, single point]. With `O=C1CN(C(=O)Cc2ccccc2)C(c2ccc(F)cc2)c2cc(Br)ccc2N1` (stereo not drawn) the Potency was inconclusive: 39.8 µM [inhibitor, single point]. For `COc1ccc(CCNC(=O)C(=O)NCC2CCCN2S(=O)(=O)c2ccc(OC)cc2)cc1` (stereo not drawn), the “activity change, negative = inhibition” value was inactive: -2.33%. In the case of `S=C(Nc1ccc(Nc2ccccc2)cc1)NC1CCCCCC1`, the Potency is reported as inconclusive: 15.8 µM [inhibitor, partial curve, poor fit]. In the case of `CNC[C@@H]1Oc2cc(Br)ccc2S(=O)(=O)N([C@@H](C)CO)C[C@@H]1C`, the “activity change, negative = inhibition” value is reported as inactive: 11%. In the case of `COc1cc(C(=O)N2CCN(c3cccc(C)c3C)CC2)cc(OC)c1OC`, the Potency is reported as inconclusive: 8.91 µM [inhibitor, partial curve, poor fit]. In the case of `Cc1ccc2cc(/C=N/NC(=O)CN3CCCCC3)c(Cl)nc2c1`, the Potency is reported as inconclusive: 39.8 µM [inhibitor, single point]. For `O=C(O)CCCC(=O)OCc1c(-c2ccccc2)ncc2ccccc12`, the “activity change, negative = inhibition” value was inactive: -7.85%. In the case of `CC(=O)c1ccc(NC(=O)c2ccc3nc(-c4ccco4)c(-c4ccco4)nc3c2)cc1`, the Potency is reported as inconclusive: 39.8 µM [inhibitor, single point]. For `CCOC(=O)C1CCN(c2ccc(Cl)nn2)CC1`, the “activity change, negative = inhibition” value was inactive: 8.57%. With `Cc1ccc(NC(=O)CN(C)C(=O)c2cc(-c3cccs3)nn2-c2ccccc2)cc1` the Potency was inconclusive: 39.8 µM [inhibitor, single point].
% is scaled to controls: 0 for no effect and ±100 for the full control effect; potency is read from the fitted curve at half-maximal effect; tags tell the direction and shape of the fitted curve.
